Source: the supplement of paper PMC3334620
In all, about 33,000 sequences were measured (“E-score (-0.5 to 0.5)”: median about -0.036, highest 2% from about 0.37 on). The list shows a part of the results.

target: T1, Yer064c (UniProt P40041); test: PBM E-score (8-mer binding enrichment) (E-score (-0.5 to 0.5)); higher = stronger / more preferred TF binding; most listed sequences are background and not binding sites; conditions: protein concentration: 200 nM; construct: GST-full length
T1 sequence: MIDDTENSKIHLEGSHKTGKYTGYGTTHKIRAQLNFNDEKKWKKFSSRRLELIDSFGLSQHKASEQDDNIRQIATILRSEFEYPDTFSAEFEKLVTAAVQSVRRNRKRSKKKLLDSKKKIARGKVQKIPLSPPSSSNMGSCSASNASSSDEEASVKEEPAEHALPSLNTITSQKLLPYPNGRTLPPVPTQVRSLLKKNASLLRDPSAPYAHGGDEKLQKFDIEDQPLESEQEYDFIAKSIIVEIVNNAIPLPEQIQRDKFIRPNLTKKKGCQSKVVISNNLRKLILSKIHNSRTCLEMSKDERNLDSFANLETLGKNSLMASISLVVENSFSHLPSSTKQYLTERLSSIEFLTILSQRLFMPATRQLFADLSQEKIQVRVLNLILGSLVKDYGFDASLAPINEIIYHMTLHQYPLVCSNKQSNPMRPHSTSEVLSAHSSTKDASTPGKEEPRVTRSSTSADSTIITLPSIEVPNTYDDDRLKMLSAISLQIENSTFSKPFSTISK
Summary of the method: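 GST-tagged yeast TFs (full-length or DNA-binding domain) were made by PURExpress in vitro transcription/translation and applied at about 100-200 nM to universal all-10-mer Agilent arrays. The arrays were made double-stranded by primer extension, on fresh or once-stripped slides. Bound protein was detected with fluorescent anti-GST, and scans were normalised with masliner. Each ungapped eight-base word, pooled with its reverse complement, received an E-score (modified Wilcoxon-Mann-Whitney statistic) from the Universal PBM Analysis Suite.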

Row | Sequence | PBM E-score
1 | ATGGAAAC | -0.134
2 | GCATAACC | -0.275
3 | ATACCCGG | -0.227
4 | CCTGCAGA | -0.0767
5 | GCGTCGTA | -0.0627
6 | CACAATGC | -0.0751
7 | AACCGCCC | -0.161
8 | ATGAATCG | 0.355
9 | GAAAGCAC | -0.138
10 | GATTACGA | 0.268
11 | AGCGGGAC | -0.121
12 | ACACTTAG | -0.0508
13 | GCAGTGGA | 0.0519
14 | GACTGCCC | 0.189
15 | GATGGAGC | -0.232
16 | AAGGCTAA | 0.221
17 | AGTTCTTC | 0.0732
18 | ATCTTTTG | -0.00455
19 | ACTACACG | 0.137
20 | CCTTTCGA | -0.098
21 | GCGCTTTA | -0.161
22 | CGCTTCAA | -0.101

Row | Sequence | PBM E-score
23 | CACGGCTA | -0.0631
24 | ACGAGAGC | -0.143
25 | AGGGCTAA | 0.0634
26 | ACTAGCTA | -0.0796
27 | AACTATCG | -0.0636
28 | GCGAGATA | -0.116
29 | TCGGACCA | -0.00066
30 | CTATGACC | 0.107
31 | GACTAGGA | 0.376
32 | CGATCAAG | 0.029
33 | AGTTACTA | 0.244
34 | CTGGCCTA | -0.25
35 | GAGCAACA | -0.0949
36 | GCGATAAA | -0.219
37 | CGGCGAGC | -0.108
38 | ACTGGGAG | -0.059
39 | TGACGGAA | -0.0189
40 | AGAGCCCT | -0.145
41 | CCTGCAAG | -0.198
42 | CGAAGACA | 0.00765
43 | AGGCACTG | -0.0757
44 | CCACTGGC | -0.16

Row | Sequence | PBM E-score
45 | GCAAATTA | -0.184
46 | AACGCGCT | -0.133
47 | ATGGCCCG | -0.278
48 | AAGGCTCA | 0.186
49 | AAGTTGCC | -0.227
50 | GCTGACAC | 0.00863
51 | AGGGGTCA | 0.0183
52 | CATTCGTA | 0.0407
53 | TACTCTAA | -0.042
54 | ACATCATG | 0.0945
55 | CAGGCGAA | -0.0848
56 | AGCGGGGG | -0.231
57 | AATAGTAA | 0.0629
58 | AAGTGACC | -0.00564
59 | ATGTTGGC | -0.191
60 | CGAAGGCA | -0.264
61 | CTCTTGGC | -0.109
62 | CGCGTCAC | -0.0553
63 | CCTTTGAC | 0.0859
64 | CCAACTTA | -0.0408
65 | GAAGCTGC | -0.0734
66 | GCCATTGA | 0.134

Row | Sequence | PBM E-score
67 | ATTTCAGG | -0.0143
68 | AAGACTAA | 0.442
69 | GTTTAAAA | 0.0456
70 | AATGTGAG | 0.123
71 | TGATGGAA | 0.125
72 | ATGTCACA | 0.095
73 | AGCAGCCG | -0.0995
74 | AGAATGCG | -0.17
75 | ATCTCGCA | 0.0436
76 | TCAGCCAA | 0.127
77 | ATTAAACG | 0.131
78 | CGACTGCC | 0.0625
79 | GACCTTCA | -0.00212
80 | ACAGCTCG | -0.158
81 | ACAGGCGA | -0.00968
82 | CTAGTAAA | 0.142
83 | CTGGCTTC | -0.154
84 | ACGAAAAC | 0.0697
85 | CTATCGTC | -0.0974
86 | CAAAACTG | -0.0183
87 | ATCCCAAC | -0.0556
88 | AAAGTCGT | 0.258

Row | Sequence | PBM E-score
89 | AAGCGGCT | 0.0683
90 | ACATGCCG | -0.124
91 | AAGGACGT | 0.0902
92 | TATGGGGA | 0.00394
93 | ATCATAGA | 0.32
94 | ATCGGTAC | -0.0379
95 | TAGCGCTA | 0.00933
96 | AATCGAGC | 0.126
97 | ACACCAAG | -0.15
98 | CTGACGGA | -0.0463
99 | CCAAGGGA | -0.181
100 | ACCGACGC | -0.118
101 | AACTTCTG | -0.0661
102 | CCGCGTAC | -0.0421
103 | CCTTCACA | -0.0814
104 | CACGGCGA | 0.0377
105 | TCCTGGAA | -0.12
106 | ACTACTCC | 0.0915
107 | GATGTATA | -0.00143
108 | CCCACACC | 0.00154
109 | GGTGTTCA | -0.0106
